# Source: the supplement of paper PMC8728848
# This is one part of the list.
# B1: PX9937A-bvu-521-23-521 (Bacteroides vulgatus) (protein)
# chain: LDLAPEDYYGAGNFWKEASQPKAFMLGLHAQLRSYYDMFYTLGELRGGTQRVGTSSLNTSLNYADIRSQNISEDIPGISNWNGLYSPIMQVNHFIQEVENGCTFLDDATRSRYLGQAYGMRALYYFMLYRTFGGVPLITKVDILDGKPSADKFYVERATPEATMEFIKADINKSENYFGNNTSFDAYDWSRYATLMLKAEIYMWAAKVSITGFTATGATDLQTAKTALSGIIGHFELMDNFASIFSCDNKKNTEIIFAMPFIEGEASNDGGRFLYQDAVFLGQAYGRNGKVIEKDTLNLKGTGGVFRDEYTEDFWKTFKEGDSRRDATFMEYYMKNDNGTLSEFGCVMKKRIGTINSNDNRIYISDIPVYRYADALLMMAEIENGLNNPCASYINEVRKRAYGDTFEENKYTEGSYAENELAILQERDKEFVSEGKRWFDVLRMHDASGRSLVFSANANYPGTNPILGTEEAYKMLWPVNIGTLNVNPLLTQTPGYGKK
# Key:
# Experiment in all cases: glycan array binding signal (z-score within array); higher = stronger binding
# Settings in all cases: glycan notation: IUPAC condensed, linker removed
# Fuc(a1-3)GlcNAc = biological target: Fuc(a1-3)GlcNAc
# Outline: (§1)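 Glycan array data came from 3228 arrays in the Consortium for Functional Glycomics database, and only arrays with an available protein sequence were kept. Glycan names were put into IUPAC-condensed notation, and columns mapping to the same glycan were averaged. The binding signal is a within-array Z-score, averaged across arrays of one protein sequence run at different concentrations or buffers and across linkers. A negative Z-score can be read as non-binding.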
# [1] = biological target: Fuc(a1-3)[Gal(b1-4)]Glc6S
# Outline: as §1
# [2] = biological target: Fuc(a1-3)[Gal(b1-4)]GlcNAc
# Outline: as §1
# [3] = biological target: Fuc(a1-3)[Gal(b1-4)]GlcNAc(b1-2)Man
# Outline: as §1
# [4] = biological target: Fuc(a1-3)[Gal(b1-4)]GlcNAc(b1-2)Man(a1-3)[Fuc(a1-3)[Gal(b1-4)]GlcNAc(b1-2)Man(a1-6)]Man(b1-4)GlcNAc(b1-4)GlcNAc
# Outline: as §1
# [5] = biological target: Fuc(a1-3)[Gal(b1-4)]GlcNAc(b1-2)Man(a1-3)[Fuc(a1-3)[Gal(b1-4)]GlcNAc(b1-2)Man(a1-6)]Man(b1-4)GlcNAc(b1-4)[Fuc(a1-6)]GlcNAc
# Outline: as §1
# [6] = biological target: Fuc(a1-3)[Gal(b1-4)]GlcNAc(b1-3)Gal(b1-3)[Fuc(a1-4)]GlcNAc
# Outline: as §1
# [7] = biological target: Fuc(a1-3)[Gal(b1-4)]GlcNAc(b1-3)Gal(b1-4)[Fuc(a1-3)]GlcNAc
# Outline: as §1
# [8] = biological target: Fuc(a1-3)[Gal(b1-4)]GlcNAc(b1-3)Gal(b1-4)[Fuc(a1-3)]GlcNAc(b1-3)Gal(b1-4)[Fuc(a1-3)]GlcNAc
# Outline: as §1
# [9] = biological target: Fuc(a1-3)[Gal(b1-4)]GlcNAc(b1-3)GalNAc
# Outline: as §1
# [10] = biological target: Fuc(a1-3)[Gal(b1-4)]GlcNAc(b1-6)GalNAc
# Outline: as §1
# [11] = biological target: Fuc(a1-3)[Gal(b1-4)]GlcNAc(b1-6)[Gal(b1-3)GlcNAc(b1-3)]Gal(b1-4)Glc
# Outline: as §1
# [12] = biological target: Fuc(a1-3)[Gal(b1-4)]GlcNAc6S
# Outline: as §1
# [13] = biological target: Fuc(a1-3)[Gal3S(b1-4)]Glc
# Outline: as §1
# [14] = biological target: Fuc(a1-3)[Gal3S(b1-4)]GlcNAc
# Outline: as §1
# [15] = biological target: Fuc(a1-3)[Gal3S(b1-4)]GlcNAc6S
# Outline: as §1
# [16] = biological target: Fuc(a1-3)[GalNAc(b1-4)]GlcNAc
# Outline: as §1
# [17] = biological target: Fuc(a1-3)[GalNAc(b1-4)]GlcNAc6S
# Outline: as §1
# Fuc(a1-4)GlcNAc = biological target: Fuc(a1-4)GlcNAc
# Outline: as §1
# Fuc(b1-3)GlcNAc = biological target: Fuc(b1-3)GlcNAc
# Outline: as §1
# Gal(a1-2)Gal = biological target: Gal(a1-2)Gal
# Outline: as §1
# Gal(a1-3)Gal = biological target: Gal(a1-3)Gal
# Outline: as §1
# Gal(a1-3)Gal(b1-3)GlcNAc = biological target: Gal(a1-3)Gal(b1-3)GlcNAc
# Outline: as §1
# [18] = biological target: Gal(a1-3)Gal(b1-3)GlcNAc(b1-2)Man
# Outline: as §1
# [19] = biological target: Gal(a1-3)Gal(b1-3)GlcNAc(b1-2)Man(a1-3)[Gal(a1-3)Gal(b1-3)GlcNAc(b1-2)Man(a1-6)]Man(b1-4)GlcNAc(b1-4)GlcNAc
# Outline: as §1
# [20] = biological target: Gal(a1-3)Gal(b1-3)GlcNAc(b1-3)GalNAc
# Outline: as §1
# [21] = biological target: Gal(a1-3)Gal(b1-3)GlcNAc(b1-6)GalNAc
# Outline: as §1
# [22] = biological target: Gal(a1-3)Gal(b1-3)[Fuc(a1-4)]GlcNAc(b1-2)Man(a1-3)[Gal(a1-3)Gal(b1-3)[Fuc(a1-4)]GlcNAc(b1-2)Man(a1-6)]Man(b1-4)GlcNAc(b1-4)GlcNAc
# Outline: as §1
# Gal(a1-3)Gal(b1-4)Glc = biological target: Gal(a1-3)Gal(b1-4)Glc
# Outline: as §1
# Gal(a1-3)Gal(b1-4)GlcNAc = biological target: Gal(a1-3)Gal(b1-4)GlcNAc
# Outline: as §1
# [23] = biological target: Gal(a1-3)Gal(b1-4)GlcNAc(b1-2)Man
# Outline: as §1
# [24] = biological target: Gal(a1-3)Gal(b1-4)GlcNAc(b1-2)Man(a1-3)[Gal(a1-3)Gal(b1-4)GlcNAc(b1-2)Man(a1-6)]Man(b1-4)GlcNAc(b1-4)GlcNAc
# Outline: as §1
# [25] = biological target: Gal(a1-3)Gal(b1-4)GlcNAc(b1-3)GalNAc
# Outline: as §1
# [26] = biological target: Gal(a1-3)Gal(b1-4)GlcNAc(b1-6)GalNAc
# Outline: as §1
# [27] = biological target: Gal(a1-3)Gal(b1-4)[Fuc(a1-3)]GlcNAc
# Outline: as §1
# [28] = biological target: Gal(a1-3)Gal(b1-4)[Fuc(a1-3)]GlcNAc(b1-2)Man(a1-3)[Gal(a1-3)Gal(b1-4)[Fuc(a1-3)]GlcNAc(b1-2)Man(a1-6)]Man(b1-4)GlcNAc(b1-4)GlcNAc
# Outline: as §1
# Gal(a1-3)GalNAc = biological target: Gal(a1-3)GalNAc
# Outline: as §1
binder,measurement,setting,value
B1,glycan array binding signal (z-score),Fuc(a1-3)GlcNAc,-0.222
same,glycan array binding signal (z-score),[1],0.367
same,glycan array binding signal (z-score),[2],-0.206
same,glycan array binding signal (z-score),[3],-0.256
same,glycan array binding signal (z-score),[4],-0.425
same,glycan array binding signal (z-score),[5],-0.541
same,glycan array binding signal (z-score),[6],-0.182
same,glycan array binding signal (z-score),[7],-0.198
same,glycan array binding signal (z-score),[8],-0.455
same,glycan array binding signal (z-score),[9],0.286
same,glycan array binding signal (z-score),[10],-0.27
same,glycan array binding signal (z-score),[11],-0.182
same,glycan array binding signal (z-score),[12],1.13
same,glycan array binding signal (z-score),[13],-0.49
same,glycan array binding signal (z-score),[14],-0.333
same,glycan array binding signal (z-score),[15],0.01
same,glycan array binding signal (z-score),[16],0.502
same,glycan array binding signal (z-score),[17],-0.075
same,glycan array binding signal (z-score),Fuc(a1-4)GlcNAc,0.148
same,glycan array binding signal (z-score),Fuc(b1-3)GlcNAc,-0.326
same,glycan array binding signal (z-score),Gal(a1-2)Gal,-0.412
same,glycan array binding signal (z-score),Gal(a1-3)Gal,-0.052
same,glycan array binding signal (z-score),Gal(a1-3)Gal(b1-3)GlcNAc,-0.068
same,glycan array binding signal (z-score),[18],-0.643
same,glycan array binding signal (z-score),[19],0.258
same,glycan array binding signal (z-score),[20],-0.446
same,glycan array binding signal (z-score),[21],-0.119
same,glycan array binding signal (z-score),[22],-0.065
same,glycan array binding signal (z-score),Gal(a1-3)Gal(b1-4)Glc,-0.315
same,glycan array binding signal (z-score),Gal(a1-3)Gal(b1-4)GlcNAc,-0.686
same,glycan array binding signal (z-score),[23],-0.427
same,glycan array binding signal (z-score),[24],0.763
same,glycan array binding signal (z-score),[25],-0.226
same,glycan array binding signal (z-score),[26],0.237
same,glycan array binding signal (z-score),[27],-0.319
same,glycan array binding signal (z-score),[28],6.91
same,glycan array binding signal (z-score),Gal(a1-3)GalNAc,-0.476
